Assay results as given in PubChem BioAssay AID493208 (National Center for Advancing Translational Sciences (NCATS), 2011).
Among all 44,000 compounds or so, about 340 (0.77%) were called active. Roughly 5% stayed inconclusive and do not appear here. The call rests on the fitted dose curve; in most records, active means well fitted inhibition curve with a large enough effect; inconclusive means small, poorly fitted or top-dose-only effect; inactive means flat fitted curve, though single readings scatter. The list shows a part of the results.

assay: Acumen qHTS Assay for Inhibitors of the mTORC1 Signaling Pathway in MEF (Tsc2-/-, p53-/-) Cells: Sytravon; settings: phospho-rpS6 immunofluorescence/PI, 24 h; series mostly up to 38.3 µM; activity change, negative = inhibition: at the top concentration; further: nearly all actives have a fitted effect of over 50% in size;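 on activity change, negative = inhibition: plate controls were DMSO for no effect and rapamycin for full effect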
In short: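 Cell-based qHTS: Tsc2-/- p53-/- MEF, 24 h cpd, 37 °C; fix/perm, anti-phospho-S6 Alexa-488 + PI; Acumen 488 nm scan; pS6/PI ratio, % positive cells; rapamycin 7.5 nM = inhibition ref; PI count = viability.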
Potency means the concentration at half of the fitted maximal effect.

Activity change, negative = inhibition, inactive:
COc1ccc(/C=C/C(=O)Nc2cccc(F)c2)cc1 7.38%
CN(C)S(=O)(=O)c1ccc2c(c1)N(CC(=O)N1CCC(C(N)=O)CC1)CCS2 -12.5%
Cc1ccc(C)c(NC(=O)Cn2cc(S(=O)(=O)c3ccc(F)cc3)c(=O)c3cc(F)ccc32)c1 -3.85%
Cn1c(=O)c2c(-c3ccccc3)n3c(c2n(C)c1=O)C(c1cccc([N+](=O)[O-])c1)Nc1ccccc1-3 (centres undefined) -11%
COc1ccc(-c2cc(C(F)(F)F)n3nc(C(=O)Nc4ccc(Cl)cc4C(F)(F)F)cc3n2)cc1OC 1.08%
Cc1cccc(C)c1NC(=O)Cn1c(=O)n(CCC(=O)NCc2ccc3c(c2)OCO3)c(=O)c2sccc21 -2.71%
Cc1ccc(NC(=O)C2CCCN(c3nc4ccccc4s3)C2)c(C)c1 (centres undefined) -3.69%
COc1ccc(C(=O)N2CCN(CCc3ccccn3)CC2)cc1 -16.4%
Cc1oc(-c2ccccc2)nc1Cn1c(=O)cc(-c2ccccc2)c2c(C)nn(C)c21 -7.84%
CCN(C(=O)Cn1cnc2c1c(=O)n(C)c(=O)n2C)c1ccccc1C 0.186%
Cc1ccc(NC(=O)c2cnc(SCC(=O)N3CCCc4ccccc43)n(C)c2=O)cc1C -1.02%
COc1ccc(OCC(=O)Nc2ccc3c(c2)N(C)C(=O)c2ccccc2S3)cc1 -3.18%
Cc1ccc2nc(Cl)c3cc(C(=O)N4CCCC(C)C4)sc3c2c1 (centres undefined) -12.4%
CCn1c(=O)c2cc(C(=O)NCCc3ccc(OC)c(OC)c3)sc2c2ccccc21 0.637%
COc1ccc(-c2cc(C(=O)Nc3c(C(=O)c4ccc(C)c(F)c4)oc4ccccc34)no2)cc1 0.332%
O=C(CCS(=O)(=O)c1nc(-c2ccc3c(c2)OCO3)cc(C(F)(F)F)n1)Nc1ccccc1C(F)(F)F 3.9%
COC(=O)Cn1c(SCCOc2ccccc2Cl)nc2ccccc21 -10.3%
COC(=O)CSc1nnc(-c2cccc(O)c2)o1 -0.961%
COc1ccc(C(C)=O)cc1CSc1nc(NCc2ccc(Cl)cc2)c2ccccc2n1 -8.03%
COc1ccc(-c2cc(C(F)(F)F)n3nc(C(=O)Nc4cccc(Cl)c4Cl)cc3n2)cc1OC -9.15%
CCOC(=O)c1cc(-c2ccc(C)cc2)n(CC(=O)Nc2cc(C)ccc2C)c1C 0.274%
CCc1ccccc1NC(=O)c1cc(S(=O)(=O)N2CCC(C)CC2)cn1C 0%
COc1ccccc1-c1nnc(C2CCN(S(=O)(=O)c3ccc(CC(C)C)cc3)CC2)o1 -12.3%
Nc1c(C(=O)Nc2ccc(C(F)(F)F)cc2)sc2nc(-c3cccs3)ccc12 1.17%
O=C(CCc1ccccc1)NCc1ccc2c(c1)CCN2C(=O)c1ccccc1 -7.51%
COc1cccc(-c2nc(SCc3cccc(Br)c3)n3[nH]c(=O)cc3n2)c1 0%
Cn1cc(C(=O)O)c(=O)c2cc(S(=O)(=O)N3CCOCC3)ccc21 -0.412%
CC(=O)N1CCc2c(sc3c2c(=O)n(CCc2ccccc2)c(=O)n3CC(=O)Nc2ccccc2F)C1 2.72%
COc1ccccc1NC(=O)c1oc2ccccc2c1NC(=O)Cc1cccs1 -42%
COc1ccc(-n2c(SCC(=O)c3ccc(Cl)cc3)nc3c([nH]c4ccccc43)c2=O)cc1 2.29%
COc1cc2c(cc1OC)C(c1ccc(Cl)cc1)N(c1cccc(C#N)c1)C(=O)C2 (centres undefined) 1.89%
COc1ccccc1N1CCN(c2ccc(=O)n(CC(=O)Nc3cc(F)ccc3C)n2)CC1 0.0619%
COc1ccc(CCNc2ncnc3onc(-c4ccc(Cl)cc4)c23)c(OC)c1 -2.8%
CCc1ccc(NC(=O)CN2C(=O)C3CCCN3c3ccc(S(=O)(=O)N(CC)CC)cc32)cc1 (centres undefined) 4.48%
Cn1cc(S(=O)(=O)N2CCCCCC2)cc1C(=O)N1CCN(c2ccccc2F)CC1 -3.14%
Cc1c(CC(=O)N2CCCCC2)c(=O)oc2cc(O)ccc12 -2.49%
Cc1ccccc1Nc1sc(C(=O)c2ccccc2)c(N)c1S(C)(=O)=O -0.29%
CCc1ccc(NC(=O)Cn2c(=O)n(CCCC(=O)NCc3ccccc3Cl)c(=O)c3ccccc32)cc1 0.962%
Cc1cc(NC(=O)CSc2nc(-c3cccc(F)c3)nc3c2c(=O)n(C)c(=O)n3C)no1 5.65%
Cc1ccc(-c2nc3cc(NC(=O)Cc4ccc(Cl)cc4)ccc3o2)cc1 -7.62%
CCOC(=O)c1ccc(N2CC3=C(C2=O)C(c2ccc(OC)cc2)NC(=O)N3C)cc1 (centres undefined) 10.5%
COc1ccc2c(Sc3ccc(C)cc3)c(C(=O)NCC(C)c3ccccc3)[nH]c2c1 (centres undefined) 4.01%
COc1ccccc1-c1nc2c(c(SCc3cc(C)ccc3C)n1)Cc1c(CO)cnc(C)c1O2 -4.38%
Cc1ccc(CNC(=O)c2cc3c(=O)oc4ccc(C)cc4c3s2)cc1 0.458%
COc1ccc(N(CC(=O)N2CCN(c3ccccc3F)CC2)S(=O)(=O)c2c(C)noc2C)cc1 0.729%
CCCNC(=O)Cn1nc(-c2ccc(C)c(C)c2)c2cnc3ccc(OC)cc3c21 -3.31%
COc1ccccc1NC(=O)Cn1cnc2ccc(S(=O)(=O)N3CCC(C)CC3)cc2c1=O 6.04%
COc1ccc2oc(=O)c(C(=O)NCCc3c(C)[nH]c4ccc(C)cc34)cc2c1 -10.9%
Cc1cc(OCC(=O)N(Cc2ccc(N(C)C)cc2)Cc2ccco2)cc(C)c1Cl -4.31%
CCOC(=O)c1ccc(OC(=O)c2cn(-c3ccc(C)cc3)c(=O)c3ccccc23)cc1 0.986%
Cc1nn(-c2ccccc2)c(-n2cccc2)c1C(=O)N1CCN(c2ccccc2)CC1 -7.3%
COc1ccc(NC(=O)Cn2c(=O)n(Cc3ccco3)c(=O)c3sc4ccccc4c32)c(OC)c1 -17.1%
Cc1ccc(NC(=O)C2CCCN(C(=O)c3cnn(-c4ccccc4)c3-n3cccc3)C2)cc1 (centres undefined) 2.3%
COCCCN1C(=O)c2[nH]nc(-c3cc(C)ccc3O)c2C1c1ccc(F)cc1 (centres undefined) -7.74%
COc1ccc(CNC(=O)c2cc3sccc3n2Cc2ccc(F)cc2)cc1 -14.4%
O=C(Nc1noc2ccccc12)c1cccc(Cl)c1Cl -1.34%
Cc1ccccc1NC(=O)C(Cc1ccccc1)N1Cc2ccccc2C1=O (centres undefined) 2.57%
Cc1cccc(OCC(=O)Nc2ccc(S(=O)(=O)Nc3onc(C)c3C)cc2)c1C -0.491%

Potency, active:
CC1=C(C(=O)Nc2ccc(C)cc2C)C(c2cc(Br)ccc2F)n2ncc(C(=O)Nc3ccc(C)cc3)c2N1 (centres undefined) 2930 nM
